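Exposure lasted 48 hours, with cells grown in 96-well plates and compounds tested at five concentrations. The concentration for 50% growth inhibition is given as GI50.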 Activity calls are given as the source filed them. Rule as the data show it: active = GI50 up to about 1.1 µM and inactive = higher.

In this assay the test system is NCI-H322M. Nature of the assay: NCI-60 cell line screen, 48 h.
For `O=C(O)C1CC(O)CN1` (stereo not drawn), the GI50 was inactive: > 100 µM.

`CN1c2ccccc2C2c3c(O)ccc(O)c3C=C([N+](=O)[O-])C21` (stereo not drawn): the GI50 is inactive: 2.19 µM.

Regarding `COC(=O)C(Cc1c[nH]c2ccccc12)NP(=O)(O)OCC1OC(n2cc(I)c(=O)[nH]c2=O)CC1O` (stereo not drawn), the GI50 is inactive: > 100 µM.

As for `COc1ccc(C(=O)/C=C/c2cccnc2)cc1OC`, the GI50 was inactive: 14.1 µM.

For `COC(=O)/C=C/c1ccc2c(c1)CCC2`, the GI50 is inactive: > 100 µM.

For `O=C([C@H](O)[C@@H](O)c1ccc(Br)cc1)C12CC3CC(CC(C3)C1)C2`, the GI50 is inactive: 5.41 µM.

In the case of `O=C1C[C@@H]2[C@@H](c3ccccc3)[C@@H]3C(=O)c4ccccc4NC(=O)[C@H]3[C@]2(O)c2ccccc2N1`, the GI50 was inactive: > 100 µM.

Regarding `CC1(C)CCC(=O)NC1CC(=O)CC1NC(=O)CCC1(C)C` (stereo not drawn), the GI50 was inactive: > 100 µM.

As for `COc1ccc2c(CCNS(=O)(=O)c3ccccc3)c(C(C)=O)[nH]c2c1`, the GI50 is inactive: > 100 µM.

`CC1(C)CCC(Sc2ccccc2)O1` (stereo not drawn): the GI50 is inactive: > 100 µM.

Take `COc1nc2sc3c(c2c(=O)n1CCCSSCCCn1c(OC)nc2sc4c(c2c1=O)CCCC4)CCCC3`: the GI50 is inactive: > 100 µM.

Turning to `CCSC1=N/C(=C/c2ccccc2O)C(=O)N1`, the GI50 is inactive: > 100 µM.

Turning to `NC(=O)CCC(CCC(N)=O)(CCC(N)=O)[N+](=O)[O-]`, the GI50 is inactive: > 100 µM.

For the molecule `Cc1nc2cc(/N=N/c3c(O)ccc4ccccc34)ccc2[nH]1`, the GI50 is inactive: > 100 µM.

On to `CCc1n[nH]c(=O)n1O`, for which the GI50 was inactive: > 100 µM.

Consider `Cc1cccc(NC(=O)C(=O)C(C(=O)c2ccc3ccccc3c2)C2OC(=O)c3ccccc32)c1C` (stereo not drawn), for which the GI50 was inactive: 10.1 µM.

As to `Oc1nnc2c(-c3ccccc3)n[nH]c2n1`, the GI50 was inactive: > 100 µM.

As to `CC(O)c1ccc[n+](Cc2ccccc2)c1` (stereo not drawn), the GI50 was inactive: > 400 µM.

On to `Cc1ccc([N+](=O)[O-])cc1S(=O)(=O)Nc1ccc(C2=NNC(c3ccccc3)C2)cc1` (stereo not drawn), for which the GI50 was inactive: 29.4 µM.

Regarding `CC1C(=O)CCC1C(Sc1ccccc1)(Sc1ccccc1)Sc1ccccc1` (stereo not drawn), the GI50 is inactive: 33.3 µM.

In the case of `CC(C)N(C(=O)C12C3C4C5C3C1(C(=O)N(C(C)C)C(C)C)C5C42)C(C)C` (stereo not drawn), the GI50 was inactive: > 100 µM.

Consider `CC[C@H]1C[C@@H](O)[C@@H]2[C@H](O)[C@H](O)CN2C1`, for which the GI50 is inactive: > 100 µM.

With `O=C(NCCNCCCNC(=O)c1cc(-c2ccccc2)nc2ccccc12)c1cccc(O)c1O`, the GI50 was inactive: 10.7 µM.

Consider `COc1ccc(C2CCc3cc4c(cc3/C2=N/OC(C)=O)OCO4)cc1OC` (stereo not drawn), for which the GI50 was inactive: 40.6 µM.

For the molecule `NCC(Cc1ccccc1)P(=O)(O)O` (stereo not drawn), the GI50 was inactive: > 100 µM.

For `O=C(NCC(C(=O)OCc1ccccc1)C(=O)OCc1ccccc1)OCc1ccccc1`, the GI50 is inactive: > 100 µM.

`CC1C=C(OC(=O)c2ccccc2)C(=O)C(n2cc(F)c(=O)[nH]c2=O)O1` (stereo not drawn): the GI50 is inactive: 55.2 µM.

Consider `NC(=O)c1ccc(NS(=O)(=O)c2ccc(N)cc2)nc1`, for which the GI50 is inactive: > 100 µM.

With `CC1CC2OC(=N)C1(C#N)C2(C#N)C#N` (stereo not drawn), the GI50 was inactive: 58.6 µM.

`COc1ccc(/C=c2\sc3n(c2=O)CCN=3)cc1`: the GI50 was inactive: > 100 µM.

Consider `COc1cc([C@@H]2OC[C@@H]3C(c4cc(OC)c5c(c4)OCO5)OC[C@@H]32)cc(OC)c1OC` (stereo partly drawn), for which the GI50 is inactive: > 100 µM.

As to `CCCCCCCCCCCC[C@@H](O)[C@H]1CC[C@H]([C@H](O)CC[C@H](O)[C@@H]2CC[C@@H](CCCCCCCC3=C[C@H](C)OC3=O)O2)O1`, the GI50 is inactive: > 50 µM.

With `C/C(=N\N=C(/S)SCc1ccccc1)c1ccccn1`, the GI50 was active: < 0.0149 µM.

The values above are taken from ChEMBL document CHEMBL1201862, “PubChem BioAssay data set” (2004).
